# Where two headings read alike, the source gives them in different places. Results are given in words; binding and its absence hold for the method and conditions named. For part of these data: In cells and extracts the contact can be indirect. Some entries that bind do so weakly or less than the wild type. For part of these data: Where a sequence is shown, tags or fusion partners need not be part of it.
# Chains of the proteins cited; added tags and fusions are not shown.
# UniProt Q09472: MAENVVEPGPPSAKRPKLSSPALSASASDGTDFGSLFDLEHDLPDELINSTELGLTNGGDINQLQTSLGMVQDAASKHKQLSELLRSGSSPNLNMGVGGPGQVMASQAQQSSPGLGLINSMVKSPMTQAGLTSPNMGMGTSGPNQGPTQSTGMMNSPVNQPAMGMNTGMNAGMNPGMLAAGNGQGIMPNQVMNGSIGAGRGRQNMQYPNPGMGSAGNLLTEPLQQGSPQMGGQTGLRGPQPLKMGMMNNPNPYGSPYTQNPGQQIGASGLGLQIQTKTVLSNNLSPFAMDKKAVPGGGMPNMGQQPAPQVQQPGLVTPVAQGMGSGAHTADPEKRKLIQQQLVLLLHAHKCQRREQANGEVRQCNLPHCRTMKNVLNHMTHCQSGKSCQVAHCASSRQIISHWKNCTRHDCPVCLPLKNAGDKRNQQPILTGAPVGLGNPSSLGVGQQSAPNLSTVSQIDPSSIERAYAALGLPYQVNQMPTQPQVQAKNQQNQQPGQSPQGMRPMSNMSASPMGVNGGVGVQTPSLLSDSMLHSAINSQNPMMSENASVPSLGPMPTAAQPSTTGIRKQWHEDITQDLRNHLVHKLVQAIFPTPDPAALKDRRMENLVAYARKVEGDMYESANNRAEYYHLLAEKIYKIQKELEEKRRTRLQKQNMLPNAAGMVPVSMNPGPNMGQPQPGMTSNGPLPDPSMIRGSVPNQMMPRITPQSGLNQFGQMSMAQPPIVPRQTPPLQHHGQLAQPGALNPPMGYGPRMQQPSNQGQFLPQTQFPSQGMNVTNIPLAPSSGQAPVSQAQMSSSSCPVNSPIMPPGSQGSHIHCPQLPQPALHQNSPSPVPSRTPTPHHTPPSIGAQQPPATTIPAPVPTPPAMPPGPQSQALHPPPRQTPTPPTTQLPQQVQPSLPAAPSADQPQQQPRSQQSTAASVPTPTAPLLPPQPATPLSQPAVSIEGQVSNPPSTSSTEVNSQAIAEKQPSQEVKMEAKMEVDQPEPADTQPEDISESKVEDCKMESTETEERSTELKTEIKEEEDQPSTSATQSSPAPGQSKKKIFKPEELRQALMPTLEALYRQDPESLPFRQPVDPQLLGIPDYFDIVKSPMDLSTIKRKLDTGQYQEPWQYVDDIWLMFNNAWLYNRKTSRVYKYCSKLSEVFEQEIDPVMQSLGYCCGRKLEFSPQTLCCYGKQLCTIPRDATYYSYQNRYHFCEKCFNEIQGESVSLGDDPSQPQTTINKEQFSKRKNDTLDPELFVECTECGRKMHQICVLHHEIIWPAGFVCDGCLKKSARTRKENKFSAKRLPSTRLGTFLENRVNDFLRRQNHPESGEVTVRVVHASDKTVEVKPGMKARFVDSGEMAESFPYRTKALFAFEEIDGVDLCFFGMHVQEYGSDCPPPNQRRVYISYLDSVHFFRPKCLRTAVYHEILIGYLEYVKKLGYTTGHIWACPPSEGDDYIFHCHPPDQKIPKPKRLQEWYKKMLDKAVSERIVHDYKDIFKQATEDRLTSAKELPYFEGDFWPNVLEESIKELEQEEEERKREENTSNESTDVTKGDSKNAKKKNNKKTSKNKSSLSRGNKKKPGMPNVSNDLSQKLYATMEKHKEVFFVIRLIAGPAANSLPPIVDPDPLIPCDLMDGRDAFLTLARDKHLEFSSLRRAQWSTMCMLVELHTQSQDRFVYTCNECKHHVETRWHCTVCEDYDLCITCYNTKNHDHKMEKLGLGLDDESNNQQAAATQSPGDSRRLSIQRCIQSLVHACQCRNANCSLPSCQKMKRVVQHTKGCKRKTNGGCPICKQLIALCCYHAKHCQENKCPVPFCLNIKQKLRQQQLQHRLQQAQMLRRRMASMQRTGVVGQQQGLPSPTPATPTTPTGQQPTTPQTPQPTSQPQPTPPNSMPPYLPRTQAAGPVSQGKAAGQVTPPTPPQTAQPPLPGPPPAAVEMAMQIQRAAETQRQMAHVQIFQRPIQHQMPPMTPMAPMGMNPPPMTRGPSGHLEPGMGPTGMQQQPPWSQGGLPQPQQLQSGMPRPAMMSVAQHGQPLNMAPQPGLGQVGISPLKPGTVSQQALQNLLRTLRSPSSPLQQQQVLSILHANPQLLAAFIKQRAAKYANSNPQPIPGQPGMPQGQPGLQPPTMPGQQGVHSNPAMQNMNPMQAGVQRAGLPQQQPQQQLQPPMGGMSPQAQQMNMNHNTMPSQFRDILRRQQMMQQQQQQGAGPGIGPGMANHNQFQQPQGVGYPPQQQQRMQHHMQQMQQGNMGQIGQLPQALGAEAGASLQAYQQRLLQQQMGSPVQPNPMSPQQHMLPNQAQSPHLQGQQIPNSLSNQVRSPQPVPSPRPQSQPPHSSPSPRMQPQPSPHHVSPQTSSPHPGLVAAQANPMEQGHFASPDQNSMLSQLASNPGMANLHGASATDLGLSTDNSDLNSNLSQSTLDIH
# T1: SMAD nuclear-interacting protein 1 (endogenous, 786-O) (human (endogenous in 786-O)) (UniProt Q8TAD8)
# T1 sequence: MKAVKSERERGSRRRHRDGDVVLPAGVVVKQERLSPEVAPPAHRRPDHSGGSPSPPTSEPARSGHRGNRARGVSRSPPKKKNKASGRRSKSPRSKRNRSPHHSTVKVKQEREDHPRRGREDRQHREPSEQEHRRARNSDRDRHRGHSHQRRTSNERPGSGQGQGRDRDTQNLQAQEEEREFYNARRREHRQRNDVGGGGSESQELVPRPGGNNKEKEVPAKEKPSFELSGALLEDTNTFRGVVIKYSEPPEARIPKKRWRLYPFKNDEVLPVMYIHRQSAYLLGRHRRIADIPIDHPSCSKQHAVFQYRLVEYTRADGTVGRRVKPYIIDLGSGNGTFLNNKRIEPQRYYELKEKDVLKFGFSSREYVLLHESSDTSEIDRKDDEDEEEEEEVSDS
# T2: HA-tagged DPF3a (786-O cells) (human) (UniProt Q92784)
# T2 sequence: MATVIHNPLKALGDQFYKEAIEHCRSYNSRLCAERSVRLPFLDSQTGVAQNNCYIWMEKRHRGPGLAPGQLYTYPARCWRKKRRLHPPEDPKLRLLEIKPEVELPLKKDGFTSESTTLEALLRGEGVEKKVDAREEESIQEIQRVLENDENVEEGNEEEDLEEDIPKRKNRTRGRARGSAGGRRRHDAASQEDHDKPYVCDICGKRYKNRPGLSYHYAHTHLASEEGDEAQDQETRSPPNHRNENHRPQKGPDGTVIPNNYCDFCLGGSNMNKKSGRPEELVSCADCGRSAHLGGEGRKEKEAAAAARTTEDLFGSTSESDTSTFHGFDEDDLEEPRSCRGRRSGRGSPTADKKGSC
# T3: SMAD nuclear-interacting protein 1 (endogenous, 786-O) (human (endogenous in 786-O)), Q8TAD8
# T3 chain: T1 sequence
# T4: GST-tagged DPF3a C-terminus (recombinant) (human) (UniProt Q92784)
# T4 sequence: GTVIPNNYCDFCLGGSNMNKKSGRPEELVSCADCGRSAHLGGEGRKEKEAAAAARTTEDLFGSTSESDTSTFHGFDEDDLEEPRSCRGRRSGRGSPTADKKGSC
# T5: GST-tagged DPF3a N-terminus (recombinant) (human) (UniProt Q92784)
# T5 sequence: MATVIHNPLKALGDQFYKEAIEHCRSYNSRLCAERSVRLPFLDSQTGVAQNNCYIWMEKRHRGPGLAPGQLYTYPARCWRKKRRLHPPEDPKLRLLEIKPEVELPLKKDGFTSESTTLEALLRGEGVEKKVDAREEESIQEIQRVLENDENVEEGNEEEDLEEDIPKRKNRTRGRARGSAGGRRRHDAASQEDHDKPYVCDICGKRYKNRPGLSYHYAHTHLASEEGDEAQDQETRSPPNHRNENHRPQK
# T6: HA-tagged full-length DPF3a (HEK293T) (human) (UniProt Q92784)
# T6 sequence: T2 sequence
# T7: Flag-tagged full-length SNIP1 (HEK293T) (human) (UniProt Q8TAD8)
# T7 sequence: T1 sequence
# B1: SMAD nuclear-interacting protein 1 (endogenous, 786-O) (protein, UniProt Q8TAD8 1-396)
# chain: T1 sequence
# B2: Recombinant full-length DPF3a, GST tag removed (natural protein, human, UniProt Q92784-2 1-357, looked up)
# chain: T2 sequence
# notes: Zinc finger protein DPF3, isoform DPF3a, cDNA subcloned into pGEX-6P-1; Expressed with 0.1 mM ZnSO4; also called DPF3a-FL; full-length DPF3a proteins; source: E. coli BL21 (DE3)-RIL, purified (Glutathione Sepharose 4B, 3C protease, Superdex 200)
# B3: SMAD4 (endogenous, 786-O), Q13485 1-552 (protein)
# chain: MDNMSITNTPTSNDACLSIVHSLMCHRQGGESETFAKRAIESLVKKLKEKKDELDSLITAITTNGAHPSKCVTIQRTLDGRLQVAGRKGFPHVIYARLWRWPDLHKNELKHVKYCQYAFDLKCDSVCVNPYHYERVVSPGIDLSGLTLQSNAPSSMMVKDEYVHDFEGQPSLSTEGHSIQTIQHPPSNRASTETYSTPALLAPSESNATSTANFPNIPVASTSQPASILGGSHSEGLLQIASGPQPGQQQNGFTGQPATYHHNSTTTWTGSRTAPYTPNLPHHQNGHLQHHPPMPPHPGHYWPVHNELAFQPPISNHPAPEYWCSIAYFEMDVQVGETFKVPSSCPIVTVDGYVDPSGGDRFCLGQLSNVHRTEAIERARLHIGKGVQLECKGEGDVWVRCLSDHAVFVQSYYLDREAGRAPGDAVHKIYPSAYIKVFDLRQCHRQMQQQAATAQAAAAAQAAAVAGNIPGPGSVGGIAPAISLSAAAGIGVDDLRRLCILRMSFVKGWGPDYPRQSIKETPCWIEIHLHRALQLLDEVLHTMPIADPQPLD
# B4: Recombinant SNIP1 1-240, GST tag removed (domain or fragment, UniProt Q8TAD8 1-240)
# chain: MKAVKSERERGSRRRHRDGDVVLPAGVVVKQERLSPEVAPPAHRRPDHSGGSPSPPTSEPARSGHRGNRARGVSRSPPKKKNKASGRRSKSPRSKRNRSPHHSTVKVKQEREDHPRRGREDRQHREPSEQEHRRARNSDRDRHRGHSHQRRTSNERPGSGQGQGRDRDTQNLQAQEEEREFYNARRREHRQRNDVGGGGSESQELVPRPGGNNKEKEVPAKEKPSFELSGALLEDTNTFR
# B5: Flag-tagged full-length SNIP1 (HEK293T) (protein, UniProt Q8TAD8 1-396)
# chain: T1 sequence
# B6: Flag-tagged SNIP1 IDR (a.a. 1-240) (HEK293T) (domain or fragment, UniProt Q8TAD8 1-240)
# chain: B4 chain
# B7: HA-tagged DPF3a C-terminus (a.a. 254-357) (HEK293T) (domain or fragment, UniProt Q92784-2 254-357)
# chain: T4 sequence
# B8: Flag-tagged SNIP1 C-terminus (a.a. 236-396) (HEK293T) (domain or fragment, UniProt Q8TAD8 236-396)
# chain: TNTFRGVVIKYSEPPEARIPKKRWRLYPFKNDEVLPVMYIHRQSAYLLGRHRRIADIPIDHPSCSKQHAVFQYRLVEYTRADGTVGRRVKPYIIDLGSGNGTFLNNKRIEPQRYYELKEKDVLKFGFSSREYVLLHESSDTSEIDRKDDEDEEEEEEVSDS
# B9: HA-tagged DPF3a N-terminus (a.a. 1-250) (HEK293T) (domain or fragment, UniProt Q92784-2 1-250)
# chain: T5 sequence
# Assays:
# [1] = target: T1, SMAD nuclear-interacting protein 1 (endogenous, 786-O) (human (endogenous in 786-O)); experiment: co-IP; 786-O lysate (empty vector, HA-DPF3a or HA-DPF3b cells; also after SNIP1 knock-down by shRNA); IP with antibody against HA or SNIP1, 2-4 h at 4 °C, washed three times with TBST, immunoblotting
# [2] = target: T2, HA-tagged DPF3a (786-O cells) (human); experiment: as above
# [3] = target: HA-tagged DPF3b (786-O cells) (human) (UniProt Q92784); experiment: as above
# [4] = target: T1, SMAD nuclear-interacting protein 1 (endogenous, 786-O) (human (endogenous in 786-O)); experiment: as above; remark: listed apart in the source
# [5] = target: T3, SMAD nuclear-interacting protein 1 …; experiment: as above; conditions: remark: other sources report otherwise
# [6] = target: T4, GST-tagged DPF3a C-terminus (recombinant) (human); experiment: pull-down; 1.5 nmol GST-tagged DPF3a or SNIP1 construct on Glutathione Sepharose 4B beads, 2 nmol SNIP1 1-240 or full-length DPF3a added, 4 °C 2 h; 20 mM Tris pH 7.5, 100 mM NaCl, 5 mM β-mercaptomethanol; washes with 0.5% Triton X-100; SDS-PAGE; both purified
# [7] = target: T5, GST-tagged DPF3a N-terminus (recombinant) (human); experiment: as above
# [8] = target: T6, HA-tagged full-length DPF3a (HEK293T) (human); experiment: co-IP; HEK293T co-transfected with HA-tagged DPF3a constructs and Flag-tagged SNIP1 constructs; IP with anti-HA or anti-Flag magnetic beads, immunoblotting with anti-Flag or anti-HA
# [9] = target: T7, Flag-tagged full-length SNIP1 (HEK293T) (human); experiment: as above
molecule,measurement,setting,value
"p300 histone acetyltransferase (endogenous, 786-O) (from UniProt Q09472 1-2414)",binding,[1],binds
B1,binding,[2],binds
same,binding,[3],no binding
B2,binding,[4],binds
B3,binding,[5],binds
B4,binding,[6],binds
same,binding,[7],binds
B5,binding,[8],binds
B6,binding,[8],binds
B7,binding,[9],binds
B8,binding,[8],no binding
B9,binding,[9],no binding

# From publication PMC9363427, “The SWI/SNF chromatin remodeling factor DPF3 regulates metastasis of ccRCC by modulating TGF-β signaling” (Nature Communications, 2022)
